Drawing on patent US20220267438A1 (Janssen / Centocor, published 2022), this text covers EC50 and Kd for 2 molecules.

The target in assay [1] is T1, human CD3 (CD3ε of the TCR/CD3 complex) on primary human pan T cells (human, UniProt P07766).
T1 construct: whole, on cells; On T cells CD3ε stands in the whole TCR/CD3 complex
Put plainly: flow cytometry, pan T cells; median of donors, estimated by bioinformatic extrapolation. As for the experimental part:
Flow cytometry was used to evaluate the CD3 arm (i.e., CD3B376) binding of BGCB491 to CD3⁺ pan T cells from 7 different healthy human. Cell-based EC₅₀ for CD3B376 could not be determined due to lack of saturation kinetics at 1 hour (FIG. 26). Bioinformatic extrapolation was performed (FIG. 27) using the CD3B376×Null control antibody (i.e., GCDB381) molecule, which saturates within 2 μM top concentration dose-response to constrain the top of the non-linear regression curve to generate a full curve that enables estimation of ECₓ values (Table 21).

The target of assay [2] is T2, BCMW37 (recombinant human BCMA antigen) (human, UniProt Q02223 1-54, limits assumed).
T2 construct: also called BCMA BCMW37 chain; human BCMA (SPR antigen)
T2 sequence (looked up): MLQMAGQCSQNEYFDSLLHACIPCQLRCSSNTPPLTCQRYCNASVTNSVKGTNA
Put plainly: SPR, BCMA binding after oxidation with metal. On the technique in general: Surface plasmon resonance follows binding to a sensor surface in real time, without labels.

In assay [3] the target is T3, human BCMA (B cell maturation antigen, TNFRSF17) on cells (human, UniProt Q02223 1-184).
T3 construct: whole, on cells; Target on H929 or MM.1R GPRC5D knockout cells, K562 cells expressing human BCMA, HEK293 cells of the cell microarray, and BCMA-only lymphoma lines; also called CD269; surface BCMA
T3 sequence (looked up): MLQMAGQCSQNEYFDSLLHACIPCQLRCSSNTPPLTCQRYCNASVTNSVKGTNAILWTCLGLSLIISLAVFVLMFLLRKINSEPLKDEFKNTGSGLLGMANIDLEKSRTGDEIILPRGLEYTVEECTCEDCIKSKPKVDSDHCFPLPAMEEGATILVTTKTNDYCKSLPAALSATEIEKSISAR
Put plainly: flow cytometry, H929-GPRC5D-KO cells (BCMA arm), 1 h 37C; median. As for the experimental part:
Flow cytometry was used to evaluate the BCMA and GPRC5D arm binding of BGCB491 in vitro. BGCB491 and isotype control were tested on a panel of H929-WT, H929-BCMA-KO, H929-GPRC5D-KO, and H929-BCMA/GPRC5D-KO cell lines after 1-hour 37° C. incubation.
On the technique in general: In flow cytometry, cells or beads pass a laser one at a time.

The target in assay [4] is T4, cynomolgus GPRC5D on K562 cells (cynomolgus monkey).
T4 construct: whole, on cells; also called cyno GPRC5D
The experiment in a line: flow cytometry on K562 cells expressing cynomolgus GPRC5D, 1 hr 37 C, average of Runs 1 and 2 (EC50 AVE). As for the experimental part: FIGS. 9A-E. BGCB463 (circles) or negative control B23B251 (triangles) were all incubated with K562 cells expressing human GPRC5D (FIG. 9A), human BCMA (FIG. 9B), cynomolgus GPRC5D (FIG. 9C) or cynomolgus BCMA (FIG. 9D) for 1 hr at 37° C. at a starting concentration of 2 μM. After secondary detection with AF647-anti-human IgG, the MFI signal was analyzed to generate an EC₅₀ and EC₉₀ (FIG. 9E). Data are representative of two independent experiments.
The GPRC5D (i.e., GC5B680) and BCMA binding arms were assessed for cross-reactivity to cynomolgus monkey as part of the BGCB463 molecule, which uses the identical binding arms as BGCB491. Cross reactivity to cynomolgus monkeys was profiled for both target-binding scFv arms using FACS-based cell binding at 37° C. for 1 hour with K562 stably expressing human or cynomolgus monkey GPRC5D or BCMA. The cell-based EC₅₀ value for the GC5B680 scFv arm was approximately 30 nM against human GPRC5D-expressing cells and about 10-fold weaker (approximately 400 nM) on cynomolgus monkey GPRC5D-expressing cells.

Assay [5] concerns the target T5, human GPRC5D (G-protein coupled receptor family C group 5 member D) on cells (human, UniProt Q9NZD1 1-345).
T5 construct: Target on H929 or MM.1R BCMA knockout cells, K562 cells expressing human GPRC5D and HEK293 cells of the cell microarray
Put plainly: flow cytometry, H929 BCMA KO cells, 1 h 37C; Run 5. As for the experimental part: First, FACS-based binding for GPRC5D and BCMA binding arms of the trispecific molecule was determined by measuring the effective concentration (EC) range from a dose-response curve using a 4-parameter fit at 37° C. for 1 hr. This was assessed using an H929 suite of cells (WT, GPRC5D-KO, BCMA-KO, and GPRC5D/BCMA KO), and a similar MM.1R suite. Cell based EC₅₀ is approximately 13 nM for WT H929 (FIGS. 2A-2D, Table 7) and 2.4 nM for WT MM.1R (FIGS. 3A-3D, Table 8). A clear avidity affect is observed as EC₅₀ and Bmax are both reduced in GPRC5D-KO and BCMA-KO lines which test monovalent binding of target binding arms (Table 7). Next, cell-based EC₅₀ was determined for the CD3-binding Fab arm using purified Pan T cells from three random donors. […] Next, dose responsive binding was assessed at 4° C. to remove any potential biological effects. As shown in FIGS. 5A-5C, binding is stronger (50-100 nM) at 4° C., compared to 37° C., which may indicate internalization. Additionally, two expression lots of BGCB463 (BGCB463.003 from transient transfection and BGCB463.004 from a stable transfection pool), were directly compared with binding to H929, MM.1R, and Pan T cells and no differences were noted (FIGS. 6A-6C).

In assay [6] the target is T1, human CD3 (CD3ε of the TCR/CD3 complex) …. The experiment in a line: flow cytometry, human pan T cells, Donor 2, 1 h 37C; Run 4. As for the experimental part: (§1) For binding of BGCB463 to human and cynomolgus Pan T cells, three human donors (Hemacare) were selected, quickly thawed, resuspended, and aliquoted into a 96-well plate at 1×10⁶ cells/mL. Cells were then washed, Fc blocked if necessary (Innovex), and stained with viability dye (Invitrogen). BGCB463 and its corresponding isotype (B23B251) were diluted in complete media to an initial concentration of 2 μM and 1:3 serial dilutions in duplicate were performed for a dose-response curve. The cells were incubated with molecules at 4° C. or 37° C. for 1 hour. When necessary, incubation with 90% human serum (Sigma) was also performed as described above.
(§2) First, FACS-based binding for GPRC5D and BCMA binding arms of the trispecific molecule was determined by measuring the effective concentration (EC) range from a dose-response curve using a 4-parameter fit at 37° C. for 1 hr. This was assessed using an H929 suite of cells (WT, GPRC5D-KO, BCMA-KO, and GPRC5D/BCMA KO), and a similar MM.1R suite. Cell based EC₅₀ is approximately 13 nM for WT H929 (FIGS. 2A-2D, Table 7) and 2.4 nM for WT MM.1R (FIGS. 3A-3D, Table 8). […] Next, cell-based EC₅₀ was determined for the CD3-binding Fab arm using purified Pan T cells from three random donors. […] Next, dose responsive binding was assessed at 4° C. to remove any potential biological effects. […]

Assay [7] has the same target. The experiment in a line: flow cytometry, human pan T cells, Donor 1, 1 h 37C; Run 1. As for the experimental part: as §1, §2
Assay [8] has the same target. Put plainly: flow cytometry, human pan T cells, Donor 3, 1 h 37C; Run 1. Here is the method:
as §1, §2

T1 sequence (P07766 23-207, one chain of several): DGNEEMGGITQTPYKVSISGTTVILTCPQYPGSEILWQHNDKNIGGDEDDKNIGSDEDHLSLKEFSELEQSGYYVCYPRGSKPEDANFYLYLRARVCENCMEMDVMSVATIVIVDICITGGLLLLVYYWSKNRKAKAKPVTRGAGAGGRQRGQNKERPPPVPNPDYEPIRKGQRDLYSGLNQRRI
T5 sequence (Q9NZD1 whole entry): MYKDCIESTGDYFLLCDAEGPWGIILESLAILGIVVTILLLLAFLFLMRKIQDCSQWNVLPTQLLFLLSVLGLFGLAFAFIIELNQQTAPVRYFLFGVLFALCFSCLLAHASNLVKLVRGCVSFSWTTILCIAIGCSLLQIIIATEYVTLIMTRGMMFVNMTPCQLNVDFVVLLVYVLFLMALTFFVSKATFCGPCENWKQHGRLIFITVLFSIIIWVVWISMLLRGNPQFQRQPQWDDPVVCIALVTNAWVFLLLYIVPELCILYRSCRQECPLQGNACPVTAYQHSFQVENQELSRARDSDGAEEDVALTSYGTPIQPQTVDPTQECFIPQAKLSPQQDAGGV

B1: BGCB491 (other)
heavy: QVQLQQSGPRLVRPSQTLSLTCAISGDSVFNNNAAWSWIRQSPSRGLEWLGRTYYRSKWLYDYAVSVKSRITVNPDTSRNQFTLQLNSVTPEDTALYYCARGYSSSFDYWGQGTLVTVSSASTKGPSVFPLAPSSKSTSGGTAALGCLVKDYFPEPVTVSWNSGALTSGVHTFPAVLQSSGLYSLSSVVTVPSSSLGTQTYICNVNHKPSNTKVDKKVEPKSCDKTHTCPPCPAPEAAGGPSVFLFPPKPKDTLMISRTPEVTCVVVSVSHEDPEVKFNWYVDGVEVHNAKTKPREEQYNSTYRVVSVLTVLHQDWLNGKEYKCKVSNKALPAPIEKTISKAKGQPREPQVYTLPPSREEMTKNQVSLSCAVKGFYPSDIAVEWESNGQPENNYKTTPPVLDSDGSFFLVSKLTVDKSRWQQGNVFSCSVMHEALHNRFTQKSLSLSPGKGGGGSGGGGSGGGGSGGGGS[letters of about 100 residues not shown]QFPHTFGQGTKLEIKGGSEGKSSGSGSESKSTGGSQVTLKESGPVLVKPTETLTLTCTVSGFSLTNIRMSVSWIRQPPGKALEWLAHIFSNDEKSYSTSLKSRLTISRDTSKSQVVLTLTNVDPVDTATYYCARMRLPYGMDVWGQGTTVTVSS
light: QSALTQPASVSGSPGQSITISCTGTSSNIGTYKFVSWYQQHPDKAPKVLLYEVSKRPSGVSSRFSGSKSGNTASLTISGLQAEDQADYHCVSYAGSGTLLFGGGTKLTVLGQPKAAPSVTLFPPSSEELQANKATLVCLISDFYPGAVTVAWKADSSPVKAGVETTTPSKQSNNKYAASSYLSLTPEQWKSHRSYSCQVTHEGSTVEKTVAPTECS
chain: EIVLTQSPGTLSLSPGERATLSCRASQSISSSFLTWYQQKPGQAPRLLIYGASSRATGIPDRFSGGGSGTDFTLTISRLEPEDFAVYYCQHYGSSPMYTFGQGTKLEIKGGSEGKSSGSGSESKSTGGS[letters of about 100 residues not shown]DEGYSSGHYYGMDVWGQGTTVTVSSEPKSSDKTHTCPPCPAPEAAGGPSVFLFPPKPKDTLMISRTPEVTCVVVSVSHEDPEVKFNWYVDGVEVHNAKTKPREEQYNSTYRVVSVLTVLHQDWLNGKEYKCKVSNKALPAPIEKTISKAKGQPREPQVYTLPPSREEMTKNQVSLWCLVKGFYPSDIAVEWESNGQPENNYKTTPPVLDSDGSFFLYSKLTVDKSRWQQGNVFSCSVMHEALHNHYTQKSLSLSPGK
notes: Trispecific IgG1 antibody (L234A, L235A, D265S); Heavy chain 1 = anti-CD3 (CD3B376) Fab heavy chain, hole and RF mutations, with C-terminal anti-GPRC5D scFv (GC5B680); Heavy chain 2 = anti-BCMA scFv (BCMB519) - Fc knob; also called JNJ-79635322; BCMA×GPRC5D×CD3 trispecific mAb
What is called EC50 is the midpoint of the concentration-response curve. In general, Kd refers to the concentration at which binding is half-saturated. Regarding B1, the EC50 in assay [1] was 3.37 µM; in assay [3] it was 0.054 µM. Further, the Kd in assay [2] was determined as 0.000215 µM.

B2: BGCB463 (other)
heavy: QVQLQQSGPRLVRPSQTLSLTCAISGDSVFNNNAAWSWIRQSPSRGLEWLGRTYYRSKWLYDYAVSVKSRITVNPDTSRNQFTLQLNSVTPEDTALYYCARGYSSSFDYWGQGTLVTVSSASTKGPSVFPLAPSSKSTSGGTAALGCLVKDYFPEPVTVSWNSGALTSGVHTFPAVLQSSGLYSLSSVVTVPSSSLGTQTYICNVNHKPSNTKVDKKVEPKSCDKTHTCPPCPAPEAAGGPSVFLFPPKPKDTLMISRTPEVTCVVVSVSHEDPEVKFNWYVDGVEVHNAKTKPREEQYNSTYRVVSVLTVLHQDWLNGKEYKCKVSNKALPAPIEKTISKAKGQPREPQVYTLPPSREEMTKNQVSLSCAVKGFYPSDIAVEWESNGQPENNYKTTPPVLDSDGSFFLVSKLTVDKSRWQQGNVFSCSVMHEALHNRFTQKSLSLSPGK
light: QSALTQPASVSGSPGQSITISCTGTSSNIGTYKFVSWYQQHPDKAPKVLLYEVSKRPSGVSSRFSGSKSGNTASLTISGLQAEDQADYHCVSYAGSGTLLFGGGTKLTVLGQPKAAPSVTLFPPSSEELQANKATLVCLISDFYPGAVTVAWKADSSPVKAGVETTTPSKQSNNKYAASSYLSLTPEQWKSHRSYSCQVTHEGSTVEKTVAPTECS
chain: [letters of about 100 residues not shown]QFPHTFGQGTKLEIKGGSEGKSSGSGSESKSTGGSQVTLKESGPVLVKPTETLTLTCTVSGFSLTNIRMSVSWIRQPPGKALEWLAHIFSNDEKSYSTSLKSRLTISRDTSKSQVVLTLTNVDPVDTATYYCARMRLPYGMDVWGQGTTVTVSSEPKSSDKTHTCPPCPAPEAAGGPSVFLFPPKPKDTLMISRTPEVTCVVVSVSHEDPEVKFNWYVDGVEVHNAKTKPREEQYNSTYRVVSVLTVLHQDWLNGKEYKCKVSNKALPAPIEKTISKAKGQPREPQVYTLPPSREEMTKNQVSLWCLVKGFYPSDIAVEWESNGQPENNYKTTPPVLDSDGSFFLYSKLTVDKSRWQQGNVFSCSVMHEALHNHYTQKSLSLSPGKGGSEGKSSGSGSESKSTGGSEIVLTQSPGTLSLSPGERATLSCRASQSISSSFLTWYQQKPGQAPRLLIYGASSRATGIPDRFSGGGSGTDFTLTISRLEPEDFAVYYCQHYGSSPMYTFGQGTKLEIKGGSEGKSSGSGSESKSTGGS[letters of about 100 residues not shown]DEGYSSGHYYGMDVWGQGTTVTVSS
notes: Trispecific IgG1 antibody (L234A, L235A, D265S); Heavy chain 1 = anti-CD3 (CD3B376) Fab heavy chain with hole and RF mutations; also called BGCB463.003; BGCB463.004
With B2, the EC50 in assay [4] was 0.372 µM; in assay [5] it was 0.0488 µM; in assay [6], 0.192 µM; in assay [7] it was 0.77 µM; in assay [8], 0.549 µM.
